In PubChem BioAssay AID596 (National Center for Advancing Translational Sciences (NCATS), 2007):
Out of some 71,000 compounds screened, about 1,400 (2%) were called active. Inconclusive means that the source gave no clear call. Such entries were picked first, then a sample of the others. The call rests on the fitted dose curve; in most records, active means well fitted curve in the direction sought with a large enough effect; inconclusive means small, poorly fitted or top-dose-only effect; inactive means no such curve, though single readings can be large or run the other way. Where the call is inconclusive, the potency comes from a doubtful curve fit.

Each molecule was assayed against Microtubule-associated protein tau (Homo sapiens) (UniProt P10636) (assay: qHTS Assay for Tau Filament Binding). Details: recombinant tau filaments, thioflavin S fluorescence, 15 h, filaments grown with octadecylsulfate alongside compound; series mostly up to 57.1 µM; activity change, negative = inhibition: at the top concentration.
Description: NIH Molecular Libraries Screening Centers Network [MLSCN]
NIH Chemical Genomics Center [NCGC]
Assay Provider: Jeffrey A. Kuret, Ohio State University
Tau monomers form filaments in vitro in the presence of anionic detergents or fatty acids. The dye Thioflavine S (ThS) binds to tau filaments and upon binding, increases in fluorescence several fold. Small molecules that displace ThS binding or prevent filament binding are identified by a reduction in ThS fluorescence. This assay used histidine-tagged, recombinant human tau protein containing the products of exons 2, 3, and 10 that was provided by Jeff Kuret, Ohio State University. To form filaments, 1 uM tau was incubated with 30 uM sodium octadecylsulfate (ODS) in reagent buffer (10 uM thioflavine S, 5 mM 1,4-dithioerythreitol (DTT), 100 mM sodium chloride, 10 mM HEPES pH 7.4) for 15 hrs at 37 C.
NCGC Assay Protocol Summary:
Assay Steps. Two uL/well of 2 uM tau in reagent buffer (10 uM thioflavine S, 5 mM DTT, 100 mM sodium chloride, 10 mM HEPES pH 7.4) was dispensed into solid black 1536-well plates. Twenty-three nL compound was transferred to the assay plate after which 2 uL/well of 60 uM ODS in reagent buffer was dispensed for a final assay volume of 4 uL /well. Following 15 hours of incubation at 37 C, fluorescence was detected by an Envision (Perkin Elmer) using 450/8 nm excitation and 510/23 nm emission.
Keywords: NIH Roadmap, MLSCN, MLI, MLSMR, qHTS, NCGC, Alzheimer's disease, Neurofibrillary lesions, tau, tubulin assembly, microtubule stability, cytoskeletal integrity, fibrillization, thioflavin dyes, Amyloidgenic
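Further: actives lower thioflavin S fluorescence by blocking filaments or displacing dye.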
On the % scale 0 is the no-effect control and ±100 the full control effect; potency means the concentration at half of the fitted maximal effect.

Chain of UniProt P10636 (P10636 whole entry, looked up): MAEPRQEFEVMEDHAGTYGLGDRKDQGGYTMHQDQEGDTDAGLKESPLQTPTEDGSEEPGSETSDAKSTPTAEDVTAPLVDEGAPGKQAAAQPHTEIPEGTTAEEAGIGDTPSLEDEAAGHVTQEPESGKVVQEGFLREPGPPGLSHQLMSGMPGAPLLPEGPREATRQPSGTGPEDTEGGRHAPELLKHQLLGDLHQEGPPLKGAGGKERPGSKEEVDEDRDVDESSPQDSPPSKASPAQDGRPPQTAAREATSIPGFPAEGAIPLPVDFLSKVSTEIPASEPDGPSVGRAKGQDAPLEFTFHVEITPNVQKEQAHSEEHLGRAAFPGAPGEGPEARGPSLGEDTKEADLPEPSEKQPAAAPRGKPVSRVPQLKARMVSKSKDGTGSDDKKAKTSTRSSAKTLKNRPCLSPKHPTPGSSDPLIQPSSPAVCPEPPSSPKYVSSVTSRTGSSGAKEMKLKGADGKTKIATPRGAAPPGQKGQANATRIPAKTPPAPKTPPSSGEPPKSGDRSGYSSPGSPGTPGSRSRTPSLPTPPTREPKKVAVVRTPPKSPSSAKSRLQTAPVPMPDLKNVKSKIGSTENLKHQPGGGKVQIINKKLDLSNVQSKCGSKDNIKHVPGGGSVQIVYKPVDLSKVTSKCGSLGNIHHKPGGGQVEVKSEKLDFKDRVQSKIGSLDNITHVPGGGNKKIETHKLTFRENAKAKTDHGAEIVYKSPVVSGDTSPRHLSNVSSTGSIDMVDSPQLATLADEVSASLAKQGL

Compound | Potency | activity change, negative = inhibition
O=S(=O)(Nc1ccc2c(c1)nc1n2CCN(Cc2ccccc2)C1)c1ccc(Cl)cc1 | inconclusive: 31.6 µM [decreasing] | –
COc1cc2c3cc1Oc1c(OC)c(OC)cc4c1[C@@H](Cc1ccc(O)c(c1)Oc1ccc(cc1)C[C@@H]3N(C)CC2)N(C)CC4 | inconclusive: 39.8 µM [decreasing] | –
COc1ccc(Nc2cc(C(=O)NCCCN3CCN(C)CC3)c3ccccc3n2)c(OC)c1 | active: 12.6 µM | –
COc1ccc(OC)c(Nc2nc(-c3ccc(O)c(O)c3)cs2)c1 | active: 20 µM | –
COc1ccc(CCNC(=O)c2ccc3nc(-c4ccco4)c(-c4ccco4)nc3c2)cc1OC | active: 3.16 µM | –
Cc1cc(C(=O)CSc2nnnn2C)c(C)n1-c1ccc2c(c1)OCCO2 | inconclusive: 10 µM [decreasing] | –
COc1ccc(NCc2nnc(SCC(=O)Nc3cc(C(F)(F)F)ccc3Cl)o2)cc1 | active: 20 µM | –
COc1ccccc1Nc1nc(-c2cccs2)cs1 | active: 12.6 µM | –
COCCNC(=O)C1(C)C=CCN1C(C)=O (stereo unspecified) | – | inactive: 14.8%
CCOCCOC(=O)c1[nH]c2c(c1C)C(=O)CC(c1ccc(N(C)C)cc1)C2 (stereo unspecified) | – | inactive: 48.3%
c1cncc(-c2nc(-n3ccnc3)c3ccccc3n2)c1 | – | inactive: -4.5%
NCC(O)COc1ccc2c(c1)OCO2 (stereo unspecified) | inconclusive: 31.6 µM [decreasing] | –
COc1ccc(Cl)c(N2CCN(CCCNC(=O)Nc3ccc(C)cc3)CC2)c1 | active: 15.8 µM | –
COCCOC(=O)C(C#N)c1nc2ccccc2nc1N1CCN(Cc2ccccc2)CC1 (stereo unspecified) | inconclusive: 1.58 µM [decreasing] | –
O=C(CCCSc1nc(-c2ccco2)cc(C(F)(F)F)n1)Nc1ccc2c(c1)OCO2 | active: 25.1 µM | –
CC(C)c1cccc2nc3c(c([Si](C)(C)C)c12)Cn1c-3cccc1=O | active: 31.6 µM | –
COc1ccc(-c2cnc(N)nc2-c2ccc(OC)cc2O)cc1 | inconclusive: 31.6 µM [decreasing] | –
CC(C)NC[C@@H](O)COc1cccc2ccccc12 | inconclusive: 39.8 µM [decreasing] | –
COc1cc2c(cc1OC)-c1cc(Nc3ccc4c(c3)OCCO4)nc(=O)n1CC2 | inconclusive: 31.6 µM [decreasing] | –
COc1ccccc1N1CCN(C(=O)c2ccc(Br)s2)CC1 | inconclusive: 39.8 µM [decreasing] | –
CC=C(Cl)Cl | – | inactive: 6.9%
CN1CCN(CCCN2c3ccccc3Sc3ccc(Cl)cc32)CC1 | inconclusive: 12.6 µM [decreasing] | –
CCOC(=O)c1sc(NC(=O)CSc2ncccn2)c(C#N)c1C | inconclusive: 31.6 µM [decreasing] | –
Cc1ccc(S(=O)(=O)N(CC(=O)N2CCC(C(N)=O)CC2)Cc2ccc(F)cc2)cc1 | – | inactive: 4.2%
COCC(=O)N1CCC[C@@]2(CCN(C(=O)Nc3ccccc3)C2)C1 | – | inactive: -1%
NNc1nncc2ccccc12 | inactive | –

Compound | Potency | activity change, negative = inhibition
O=C(NCCN1CCN(c2ccccc2F)CC1)c1cccn2c(=O)c3ccccc3nc12 | inconclusive: 31.6 µM [decreasing] | –
COCCn1c(C)nc2oc3ccc(Br)cc3c(=O)c2c1=O | active: 15.8 µM | –
Cc1c(N=c2c(=O)c3ccccc3c2=O)c(=O)n(-c2ccccc2)n1C | active: 15.8 µM | –
Cc1nn2cc(-c3ccc(N)cc3)nc2s1 | active: 15.8 µM | –
Cc1ccc(C2c3c(oc4ccccc4c3=O)C(=O)N2c2nnc(C(C)C)s2)o1 (stereo unspecified) | inconclusive: 31.6 µM [decreasing] | –
Cc1ccccc1Nc1nc(CSc2nnc(-c3ccoc3C)n2C)cs1 | inconclusive: 31.6 µM [decreasing] | –
Cc1ccc(-c2cc(C(F)(F)F)n3nc(C(=O)N4CCCC4)cc3n2)cc1 | inconclusive: 0.501 µM [decreasing] | –
CN(CCc1ccccn1)c1ccc2c(c1)Cc1ccccc1-2 | inconclusive: 3.98 µM [decreasing] | –
COc1cccc(Cn2c(=O)cnc3cnc(OCc4ccccc4)nc32)c1 | inconclusive: 31.6 µM [decreasing] | –
COc1c2occc2c(OC)c2c(=O)cc(C)oc12 | – | inactive: 3.3% [at 25.6 µM]
CNc1ncnc2ccc(-c3ccccc3OC)cc12 | – | inactive: -14.8%
CN1CCN(Cc2nc3c(c(=O)[nH]c(=O)n3C)n2CCc2ccccc2)CC1 | inconclusive: 20 µM [decreasing] | –
COc1cccc(-c2nnc(SCC(=O)OC(C)C)n2N)c1 | – | inactive: 3.7%
O=C(Cc1ccccc1)Nc1ccc(-c2nnc(-c3ccco3)o2)cc1 | – | inactive: 458%
Cc1noc(C)c1-c1cc(NCc2ccccc2)ncn1 | – | inactive: -2.1%
Fc1cccc(/C=N\N=C/c2cccc(F)c2)c1 | inconclusive: 39.8 µM [decreasing] | –
CCC(=O)Nc1ccc2nc(C)n(CC(=O)Nc3ccccc3)c(=O)c2c1 | active: 12.6 µM | –
c1ccc(-c2cccc(N3CCC4(CCNCC4)CC3)c2)cc1 | inconclusive: 20 µM [decreasing] | –
O=C1C2=C(Nc3cc([N+](=O)[O-])ccc3N2)O[C@@H]1c1ccc([C@H]2OC3=C(Nc4ccc([N+](=O)[O-])cc4N3)C2=O)cc1 | inconclusive: 3.98 µM [decreasing] | –
CC[C@]1(O)C[C@@H]2CN(CCc3c([nH]c4ccccc34)[C@](C(=O)OC)(c3cc4c(cc3OC)N(C=O)[C@H]3[C@@](O)(C(=O)OC)[C@H](C(=O)OC)[C@@]5(CC)C=CCN6CC[C@]43[C@H]65)C2)C1 | inconclusive: 39.8 µM [decreasing] | –
C[C@H]1[C@H](C)CC[C@@]2(C(=O)O)CC[C@]3(C)C(=CC[C@@H]4[C@@]5(C)CC[C@H](O)C(C)(C)[C@@H]5CC[C@@]43C)[C@@H]12 | inconclusive: 39.8 µM [decreasing] | –
CCC[C@@H]1C[C@@]1(CCC)[C@@H](NC(=O)Oc1ccccc1)c1ccc(C(=O)OC)cc1 | inconclusive: 25.1 µM [decreasing] | –
CC1=CC(C)(C)N(C(=O)CN2C(=O)c3ccccc3C2=O)c2ccccc21 | inconclusive: 25.1 µM [decreasing] | –
CCCCCc1c(C)nc(NCc2ccccc2)[nH]c1=O | active: 31.6 µM | –
CCOC(=O)CCCNC(=O)COC(=O)c1cccc(C)c1O | – | inactive: -2.8%
